# Over roughly 16,000 sequences, “Z-score” has its median near -0.37; the highest 2% begin near 3.1. The list shows a part of the results.
# System: RBM10 RRM1-ZnF-RRM2 (GST-tagged construct)
# Assay: RNAcompete 7-mer binding Z-score; higher = stronger binding preference
# How it was run: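 In 1 ml Hepes pH 7.8 buffer with KCl, NaCl, glycerol, DTT, BSA and glutathione Sepharose beads, GST-tagged RBM10 constructs (20 pmol) were incubated for 30 min at 4°C with 1.5 nmol of a designed pool of 241 399 RNAs up to 41 nt. Four 2-min washes at 4°C followed, and bound RNA was detected by microarray hybridisation. Heptamer motif enrichment was expressed as a one-sided Z-score across probes containing each motif.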
row,Sequence,RNAcompete 7-mer binding Z-score
1,CUGGGUA,1.78
2,CGGCCUU,-0.683
3,CAUACUA,-0.726
4,AGCUUCC,-0.719
5,UUGCGUU,-0.562
6,GCUCAUC,-0.737
7,UAACACA,-0.00877
8,AUCGUCA,-0.548
9,CGCUAGC,-0.675
10,GGGCCUA,0.246
11,GCGGCGC,0.734
12,GGCCCAG,-0.26
13,AACGAGG,2.14
14,GUGACAA,0.796
15,GGUUGAG,2.85
16,GGCAGAA,1.41
17,GACACAU,-0.413
18,GUAAACC,-0.0197
19,GACGUCU,-0.672
20,UGACGGU,0.993
21,UACUACU,-0.821
22,CUAGAAG,0.0386
23,GAUGGCU,0.476
24,UUCGUGG,0.814
25,UCGUUUA,-0.526

row,Sequence,RNAcompete 7-mer binding Z-score
1,CUCUUAC,-0.999
2,CGGAGAG,0.975
3,CCCUCAC,-0.748
4,UCUCGCU,-0.919
5,CAACGAU,-0.136
6,GCCUACC,-0.726
7,UGACAUC,-0.464
8,UUAAACG,-0.442
9,ACGAAAU,-0.191
10,AAACCAA,-0.326
11,GAUUCUA,-0.65
12,UCACUUU,-0.923
13,AAUUCCA,-0.508
14,GAAGAUG,1.38
15,ACUGUCU,-0.945
16,UCCUAGU,-0.704
17,UCAGACA,-0.398
18,GCGGGCG,2.17
19,CAGUAAC,-0.078
20,UAUCAAC,-0.504
21,GGGCGUU,0.949
22,UUUGCCC,-0.755
23,AUAGUAU,-0.0343
24,AGCUACA,-0.103
25,CAAAAUU,-0.49

row,Sequence,RNAcompete 7-mer binding Z-score
1,UGGUCGU,0.337
2,CCACCUC,-0.69
3,UCACUCA,-0.89
4,GUGCGGU,1.41
5,GCACGAC,0.0058
6,CUUGGGC,0.385
7,GUCACCC,-0.613
8,GCUGAAA,-0.187
9,AGCGUAU,0.0349
10,UUAAAUU,-0.664
11,AAGGUAA,3.65
12,UCUGAAC,-0.839
13,ACGUCUG,-0.635
14,UCUCGGU,-0.449
15,GAUACGU,0.192
16,CCUAAGU,-0.584
17,AGUCACA,-0.0889
18,AAAGCCA,-0.337
19,UCAUGCG,-0.289
20,UCGAUCG,-0.551
21,CGACGAA,-0.504
22,GUGGUGU,1.58
23,UCUUGCG,-0.664
24,GUCACAA,-0.209
25,GACACCA,-0.289

row,Sequence,RNAcompete 7-mer binding Z-score
1,UUUCUUU,-0.697
2,UAGCAGC,-0.256
3,UAGUGGG,3
4,GGGCAGU,2.31
5,UGCAAAU,-0.38
6,CGCGUUC,-0.613
7,GCGCUCG,-0.329
8,CCCAUCA,-0.803
9,UGUAAGU,-0.144
10,CUGCAGA,-0.449
11,UCUCUGA,-0.781
12,CUCGAAG,-0.318
13,CGAUGCG,0.385
14,UCGUUAU,-0.781
15,AAUCUAU,-0.595
16,UGUGUUG,-0.0343
17,UGGAAUC,0.57
18,UUACGGC,-0.3
19,GCCCAAA,-0.85
20,ACUUGAG,-0.541
21,UCUAGGG,0.92
22,GCGGGCC,0.25
23,GCGUCCA,-0.406
24,UUGUUAC,-0.493
25,CGUAAAA,-0.187

row,Sequence,RNAcompete 7-mer binding Z-score
1,AUUGCCG,-0.555
2,CCAGAGU,0.00944
3,AUUAUAA,-0.391
4,GAGCCCU,-0.825
5,UCGAUUU,-0.646
6,AUCGCCC,-0.901
7,UAGAGUG,0.971
8,GACGGUC,-0.249
9,AGACUGC,-0.934
10,UGAUUAG,-0.0306
11,CUCUUUU,-0.788
12,AGACACG,-0.362
13,AUUACAC,-0.537
14,UACACGG,0.21
15,GAUGAAC,0.385
16,AACAUCC,-0.541
17,UUCACAA,-0.581
18,GUUGAGU,0.57
19,CCGCAUA,-0.817
20,GAACUCG,-0.497
21,CGCUAGG,0.468
22,UGGCACA,0.497
23,GCUUUUC,-0.763
24,ACCGAUU,-0.53
25,UAUAUGC,-0.439

row,Sequence,RNAcompete 7-mer binding Z-score
1,UGUUUUG,-0.391
2,AUUCUCA,-0.675
3,CUUGCCA,-0.843
4,UUCAAAU,-0.595
5,CCAAUGU,-0.3
6,UUAACAU,-0.635
7,GCACGAG,0.632
8,AAAGAGU,0.49
9,GCUCAGA,-0.202
10,AGAUUAU,-0.147
11,CGGUACA,0.552
12,GAAAAGA,0.654
13,UUUACUA,-0.781
14,GUCCGCG,-0.18
15,GACGGGC,1.28
16,CCCACGG,-0.275
17,CGAGUGU,0.264
18,UACUGCG,-0.402
19,UACAGCA,-0.0743
20,AUACUUC,-0.908
21,UGAGAAC,0.0349
22,GAUCUAU,-0.577
23,CUUCGGA,-0.613
24,AGUCAUA,-0.347
25,AGCAAAU,-0.347

row,Sequence,RNAcompete 7-mer binding Z-score
1,AAGCGUC,-0.326
2,GCCGGCC,-0.653
3,AGAUAGU,0.104
4,AUAACGC,-0.624
5,UCGCCCG,-0.792
6,AGCCUCU,-0.817
7,AAAAAGU,0.0532
8,AAUUUUU,-0.781
9,GUCCCAG,-0.493
10,CCUCUGU,-0.679
11,UUCAGAA,-0.42
12,UUAUCCA,-0.581
13,GCUCAAG,-0.428
14,AUGAACC,-0.344
15,CCACUUU,-0.817
16,GUUUUCG,-0.107
17,UAUCGUC,-0.606
18,UGAAUCG,0.221
19,GUCGUUA,-0.125
20,GGGGCUA,1.81
21,GGUGGGU,3.47
22,CGGUCCU,-0.57
23,UCUCUCC,-0.806
24,CAGGACG,1.32
25,GCAUGAC,-0.373

row,Sequence,RNAcompete 7-mer binding Z-score
1,CCGAUCU,-0.938
2,CCGCUGU,-0.679
3,CGCCUAG,-0.635
4,GCUCCAA,-0.511
5,CAUUCCU,-0.846
6,GCCGCUA,-0.734
7,AUACUCA,-0.697
8,GGAUUGA,1.79
9,AGGUCGC,0.0167
10,GGCCGGC,-0.202
11,CUCCAAU,-0.606
12,GCGAAAA,0.297
13,GCGGGUG,2.75
14,CAAGUCC,-0.639
15,GACCGCC,-0.876
16,AUGUGUC,-0.133
17,GAGCAUA,0.283
18,AAACACA,-0.0707
19,UAGCAGU,-0.162
20,UCGUCCC,-0.704
21,GCACUAC,-0.384
22,GUGCCCG,-0.249
23,GCCUGUG,-0.541
24,AUUUGUA,-0.577
25,UCUCGGA,-0.329

row,Sequence,RNAcompete 7-mer binding Z-score
1,UGAGGAC,0.862
2,UGCGUUA,-0.267
3,GCUAUUU,-0.781
4,CAACAAC,-0.486
5,AACCAAA,-0.26
6,CUCAGUA,-0.672
7,UGUUGAG,0.512
8,GCCCACG,-0.577
9,GCUACAC,-0.129
10,CAAUUAA,-0.577
11,AAUACCC,-0.632
12,GAUUUCG,-0.355
13,GUGUGAC,0.465
14,AAUUUUC,-0.788
15,CGUGGCC,-0.162
16,ACCCUAG,-0.785
17,GCUCGAC,-0.53
18,CGGACGA,0.487
19,UUGGUAA,0.505
20,CCAAGAC,-0.686
21,AUGAACG,0.33
22,CGCACGU,-0.402
23,UCCGACA,-0.719
24,GCUAAAC,-0.34
25,GAUAGAU,0.432

row,Sequence,RNAcompete 7-mer binding Z-score
1,UUUGUGA,-0.304
2,UGGGCGC,0.989
3,ACUAGUU,-0.391
4,CUCACGC,-0.755
5,CUGUAUA,-0.632
6,GAUGUUG,0.436
7,GACAUCG,-0.38
8,AUCAUCC,-0.675
9,UCAGUCC,-0.686
10,AGAACAC,-0.493
11,UUGGAUA,0.658
12,GUGAGAU,0.811
13,CGAUCUC,-0.821
14,CCGGGAC,0.173
15,CUGCAAC,-0.752
16,GAGGCGG,2.59
17,AGGCUAC,-0.289
18,CCGACAU,-0.763
19,CAGGGGC,1.52
20,UUGUGGA,0.825
21,CGUGCUA,-0.555
22,CCGCCAC,-0.643
23,CAGUGCC,-0.235
24,GGCGCGU,0.476
25,UCGAAAA,-0.355

row,Sequence,RNAcompete 7-mer binding Z-score
1,GUCUUAU,-0.785
2,UGCAAUG,0.119
3,UAUCUGU,-0.763
4,AUAGCCU,-0.704
5,UCCCUUA,-0.843
6,CACUAUG,-0.391
7,CUGACGU,-0.53
8,AGACAAU,-0.275
9,AGGAUCA,0.559
10,AAGAUUG,0.0932
11,AAUCGGG,2.26
12,GGUUUAC,0.396
13,GUAUUAU,-0.118
14,GUAGGGU,4.48
15,CUUCAGC,-0.861
16,CGCAUCG,-0.424
17,ACGGAAA,1.24
18,AUACACC,-0.774
19,GGUUGCA,0.876
20,AUCGUGG,1.14
21,GAUGUGG,2.88
22,UGGAGAC,1.6
23,CUCUCGC,-0.814
24,GGAGCUA,1.01
25,UAGCUCA,-0.664

row,Sequence,RNAcompete 7-mer binding Z-score
1,CCUACCG,-0.821
2,AGCAAUC,-0.282
3,UAGGCGG,1.79
4,CAUUUGG,-0.191
5,GUACCCA,-0.643
6,GGGGGCC,1.36
7,GGGACGG,3.05
8,UGCAAGG,1.36
9,CCCGCGC,-0.544
10,CACUCUA,-0.788
11,CCCUUCC,-0.715
12,UUUCUAG,-0.592
13,GGCGUAU,0.345
14,CUUAGAG,-0.395
15,UGUCAGC,-0.439
16,CGUAGUC,-0.439
17,AUAACGU,-0.205
18,AUCACAC,-0.704
19,CUCAACA,-0.704
20,UGGUGAC,0.931
21,AGUCUGA,-0.318
22,AGUGAGU,0.996
23,AAAAAAU,-0.129
24,GUACAUC,-0.253
25,UACAGAU,-0.198

row,Sequence,RNAcompete 7-mer binding Z-score
1,CUUUAGU,-0.766
2,GGAUCGC,0.538
3,AGGUUAU,0.65
4,UGAUAUA,-0.366
5,GGACGGA,2.15
6,UCGAAUC,-0.562
7,UGCUGAC,-0.216
8,GGUCCGC,-0.0561
9,GGUGGUU,2.03
10,CCGGGGU,1.71
11,AAAGCUC,-0.53
12,GGUACUC,-0.118
13,AGUUACU,-0.439
14,GGGUGCC,1.84
15,ACGAAGG,2.87
16,AGCUUAU,-0.73
17,UGAUCUU,-0.883
18,AUACCGC,-0.755
19,UAGUAGA,0.388
20,GGUUUUU,0.472
21,UGGGACU,1.73
22,UGUCUGC,-0.617
23,AGAGCCC,-1.11
24,UCGUAAG,-0.326
25,GAUUGCU,-0.482

row,Sequence,RNAcompete 7-mer binding Z-score
1,CGGUUCU,-0.606
2,GGAGUGA,2.63
3,AGAGUUA,0.199
4,ACAGCAG,0.53
5,UCGUCCA,-0.661
6,AUUGUGG,1.33
7,AUUUAGC,-0.653
8,CGUUACU,-0.504
9,UCUAGUC,-0.632
10,AUGUCGA,-0.347
11,CAUCGGC,-0.493
12,CGCUCAA,-0.566
13,GGUUGGA,2.81
14,AGGUUGG,2.71
15,CAAUCGC,-0.664
16,UCGUCGC,-0.442
17,GGCCAAU,0.00944
18,ACUGCAA,-0.628
19,UUCUCGG,-0.57
20,AGGUUGC,0.556
21,CUAACCU,-0.792
22,GAUCCUU,-0.723
23,GUCAGUU,-0.289
24,UCUCGGG,-0.198
25,UCAGCGA,-0.373

row,Sequence,RNAcompete 7-mer binding Z-score
1,UAUCAGU,-0.402
2,UAGAGCG,0.935
3,CGUUAAA,-0.453
4,CAAAGGA,1.34
5,UUUAGAC,-0.737
6,GCAUGGG,3.08
7,GGCUGAA,0.33
8,UAAGCCA,-0.712
9,CUUGUUA,-0.795
10,AGCGUGA,0.399
11,UGCCACA,-0.497
12,AGUUGAG,1.16
13,UGUUGCC,-0.777
14,UCCGGUA,-0.111
15,CCCCAAU,-0.755
16,CCUACGG,-0.446
17,AUAGAAU,-0.111
